From the supplement of paper PMC3334620
In all, about 33,000 sequences were measured (“E-score (-0.5 to 0.5)”: median about -0.016, highest 2% from about 0.32 on). Some of the results follow.

target: T1, Stp1 (UniProt B3LFK1); experiment: PBM E-score (8-mer binding enrichment) (E-score (-0.5 to 0.5)); higher = stronger / more preferred TF binding; most listed sequences are background and not binding sites; conditions: protein concentration: 200 nM; construct: GST-full length
T1 sequence: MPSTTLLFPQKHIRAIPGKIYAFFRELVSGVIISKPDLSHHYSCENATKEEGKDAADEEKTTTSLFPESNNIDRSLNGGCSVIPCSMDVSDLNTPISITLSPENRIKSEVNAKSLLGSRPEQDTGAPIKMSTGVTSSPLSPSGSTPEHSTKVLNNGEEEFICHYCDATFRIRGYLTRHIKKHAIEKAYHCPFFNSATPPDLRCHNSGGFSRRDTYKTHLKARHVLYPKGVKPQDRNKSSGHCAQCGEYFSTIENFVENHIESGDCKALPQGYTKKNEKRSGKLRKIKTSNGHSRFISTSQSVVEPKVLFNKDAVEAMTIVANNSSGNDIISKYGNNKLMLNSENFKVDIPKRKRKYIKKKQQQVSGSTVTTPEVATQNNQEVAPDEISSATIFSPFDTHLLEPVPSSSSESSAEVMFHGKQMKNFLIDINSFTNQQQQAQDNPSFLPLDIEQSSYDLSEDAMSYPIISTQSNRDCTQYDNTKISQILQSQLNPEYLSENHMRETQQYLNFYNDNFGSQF
Outline: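 Each ungapped eight-base word and its reverse complement, pooled, received an E-score from the Universal PBM Analysis Suite. Underlying scans, normalised with masliner, recorded fluorescent anti-GST bound to GST-tagged yeast transcription factors. These were applied at about 100-200 nM to universal all-10-mer Agilent arrays double-stranded by primer extension.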

Sequence | PBM E-score
CCGGTATC | -0.149
AACGCAGG | -0.153
AAAGAAGA | 0.0324
ACGGTGGC | -0.115
CGTTGGAC | -0.131
GACTTGGA | -0.246
ATTGTCCC | -0.286
GATAACCC | -0.281
CGACGAAA | 0.102
AATTCCAT | 0.134
CGGTCTGC | -0.0402
CTCTCTTC | -0.147
AAGCTCAA | -0.135
GCTGAAGC | -0.0652
AATACACG | 0.0447
CGAGGCGA | 0.289
AGCCCTCC | -0.283
CGACATGC | 0.156
AGTTACGA | 0.113
AGGCGGAC | -0.0896
AACTTTAG | -0.0306
GACACGTC | -0.153
CTTCAAGA | 0.0445
AGCGAGCG | 0.0624

Sequence | PBM E-score
GATATTAA | 0.163
GATCTTAC | 0.029
GCACGCGC | 0.239
ACGAGATC | -0.0452
ACGCTCCG | -0.177
GATCTTAA | 0.0843
AGGCTTCG | -0.0078
AGTTCGTC | 0.049
CACCGGCA | 0.105
CTGCGTCA | -0.0654
CGCGTCCC | -0.0263
ATTGCCTA | -0.11
ATGTATAG | -0.0149
CTTGCCTA | -0.0283
AGACTGAC | -0.226
ACTGGGCT | -0.308
GTTAAGGA | -0.0109
AGTAATTG | 0.109
AGTCAATC | 0.0077
AAGAGGGT | -0.207
ATCCCAAT | 0.0705
AGAGCGCA | -0.322
AACTCGAC | -0.0357
AGTGCCTA | 0.21

Sequence | PBM E-score
ACTGCGAG | -0.217
AATTTGGG | -0.0818
CACCTAGG | -0.314
AAGTGCAG | -0.243
ACCCGATC | -0.248
CGGGACGC | -0.108
AAGAGCTC | -0.181
ACAACTGT | -0.164
CTAGCATC | -0.0558
GTGGCAAA | 0.117
ATGGGGGG | -0.329
ACGTGCAC | 0.0946
GCCTGAGC | -0.103
ACTACGGG | -0.222
AGGTCTCC | -0.155
CAATAGAA | -0.0423
ACTACACC | -0.082
CTCTCTAA | -0.0711
CTGAGCCC | -0.108
ATCTCCTA | -0.214
CTTTCGGA | -0.0677
AGGAACGC | -0.076
GAGCATTA | -0.0495
AGTGTGTG | -0.093

Sequence | PBM E-score
GAGGAACC | -0.112
CATCAATC | 0.0339
CCGCTTGC | 0.214
CGCCTTCA | 0.0777
AACTGGAA | 0.00044
GGTCTTAC | -0.134
ACTTGGCC | -0.172
AGCTCAGA | -0.117
CAGGTTCC | -0.223
ATGGACCG | -0.0868
CCATACCA | -0.0553
CTTGTGAC | 0.0615
CATGGTTC | 0.0473
ATTGAGGC | 0.146
ATACAGCC | -0.0239
CACCCCGC | 0.137
AATATGGA | 0.0277
ACGCACCT | -0.233
AAAGACGG | 0.098
AACGTGTA | -0.198
GGGCAATA | 0.0993
ATATCAGC | 0.0273
